# The source gives no read counts; variants with many changes may rest on few reads.
# B1: LINE1-mini (parent)
# chain: GGCAGAGCUCAACACAGCGUGGCAAAGUGGCUGUGGCUAGACUGCC
# Variants of: B1
# Experiment: self-cleavage, relative activity (ratio to wild type); higher = more cleavage; in vitro, sequencing; the parent is a self-cleaving ribozyme
row,Variant,self-cleavage
1,A11U C13G G30A G40U,0.02
2,A12C C23A A41G,0
3,A11U G29U G36C G40C,0.02
4,A11G U20G G30U G33U U43C,0.01
5,A11U A12U A16U U32C C42G,0.01
6,A12C C18A G19U G21A,0
7,A12C C15G A26C U38A,0
8,A11U A14C G19A,0.01
9,A11U G22A G40C,0.02
10,A12C C15A A39G,0.07
11,A11U G21U G30A U32G,0.02
12,A11U C15A U32A,0.01
13,A12C A25C C37G C42U G44C,0
14,A11U A12U U20C G29A G33C A39U,0.02
15,A11U G17U G22A,0.33
16,A11U U28G G40A,0
17,A12C A24C C45G,0.01
18,A11G G33C C46A,0.01
19,A11U G22C G36A,0.06
20,A12C C23U A26U C31A,0.01
21,A12C C23U A25C U38A C46A,0
22,A11U A12C G19U,0.02
23,A12C A16G G21U G33U,0
24,A11U G22C G30A,0.28

row,Variant,self-cleavage
1,A11U C18A G27C G36A,0.02
2,A12C A26C G29U G35C C45U,0.01
3,A11U G19C U43C,0.01
4,A11U C13U G22A,0.13
5,A11U G17C C23A U38C,0.02
6,A11U G35A G36A,0.02
7,A11G G35U G44U,0.03
8,A11U G22U A24U C37A A41U,0.01
9,A11U C15A G27U,0.01
10,A11U G29A G36C,0.02
11,A12C A16G C18G,0.04
12,A12C A14G G27U U28A A39G G40U,0
13,A11U G21A U32G,0.05
14,A12C C18U A25G A26G G33C G44C,0
15,A11U A14G C18U A25U C37G,0.01
16,A12C C15G G27C,0.01
17,A11U A12G U32C C37A,0.01
18,A11U U43G C45A C46A,0
19,A11U G29U G30A,0.19
20,A11U C31A U32G G33A A39C G40U C42U,0
21,A11U G29U U34G,0
22,A12C C13G C23G C31U U34G G44C,0
23,A12C C15U A24U C37U,0.03
24,A11U A24U A25G,0.64

row,Variant,self-cleavage
1,A11G U32G G40U,0.04
2,A11G U28G C37U,0.07
3,A11G G35A A41C,0.05
4,A11U G21A G35A G40U,0
5,A11U U34A U38C C46G,0.03
6,A12C A14U G19A U20A A25G U28G C31U G35A G40A,0
7,A11U G19C G21U A25C U32A C45A,0.01
8,A11U G36U C37U,0
9,A11U C15U G35A U38A,0.02
10,A11U U32A G33C C37A C46U,0
11,A11U C13A G22A A24U U28A,0.01
12,A11U C15A G44A,0.03
13,A11U U28C C45U,0.02
14,A11U G27U G40C A41U,0
15,A11U C13U C18A G35U,0
16,A12C C15U C31A,0.01
17,A12C A24C G44C,0.01
18,A11U A16U G29U,0.02
19,A11G U32A G35A,0.01
20,A11U U28G G29U,0.13
21,A11U G22A G36U,0.03
22,A11U G22C C31A,0.04
23,A12C C13G U20G C31G U43C,0
24,A11U C13U G35U U38A A41U U43G C46U,0.01

row,Variant,self-cleavage
1,A11U C13G U32G U43A,0.01
2,A11U C15A U34A C46G,0.02
3,A12C C15U C18G G27C C37A,0.01
4,A12C A24C G27C U32G,0.02
5,A11U G17U G19C,0.11
6,A11U U28C A41U,0.03
7,A11U C37A C45G,0.01
8,A12C C13G A16C G22U,0.02
9,A11U C18G C45U,0.03
10,A11G G33A U34A G35U,0.03
11,A11U G21A C23U C45G C46U,0.01
12,A12C A25C C37U G40U,0
13,A11U C23A G29U G40C,0.01
14,A11G G40A C42U,0.03
15,A11U C13U A16G,0
16,A11U C15A A26G G40C,0
17,A11U C13G U20C A24U G30C,0.01
18,A12C C13A G22C,0.15
19,A11U U32G A41U,0.02
20,A12C C13G C37G,0.01
21,A11U U20A G33A,0.01
22,A11G G35C C37U A39C,0
23,A11U A16C C18U,0.01
24,A12C A14U G22A,0.03

row,Variant,self-cleavage
1,A11U C13U G17U,0.04
2,A11U A26U G36C,0.01
3,A11G G30A G33U,0.03
4,A11U G40U C42U C46A,0.02
5,A11G G30C G33C,0.02
6,A11U C13U G35U A39G C45A,0.01
7,A11U C23A G35U U43C,0.01
8,A11U C15U C31U,0.05
9,A11U C18U U20A C46U,0.26
10,A12C A14U G19C G22C G27A U34A C37G,0
11,A12C C13G C31A,0
12,A11G U20A C23U C31A,0.03
13,A11U G17U A25C A26U,0.01
14,A11U A14G G30U G33U C37A A41U,0.01
15,A12C A14C G17C G27C,0.02
16,A11U C13G C23U,0.01
17,A11U C13G G22A C37A,0.02
18,A11U C13U C15A G22A C46A,0.02
19,A12C A24C U34A,0.01
20,A11U C13U U32A,0.07
21,A11U C31U U34C C42G,0.01
22,A11U G35U G40U,0.01
23,A11U A14U C31G,0.01
24,A11U A14C G19C C31U G44C,0.01

row,Variant,self-cleavage
1,A11U G22A G29A,0.03
2,A11U C15G A24G G33C G36C,0.01
3,A12C C18A G21C U38C,0
4,A11U U32G A39C C42U,0.03
5,A11U A12C G21U A26C A39U,0.01
6,A11U C23U C31U A41C U43G,0
7,A11U A41U C45A,0.06
8,A11G G33U A39U G40C A41C,0.01
9,A11U G17U C23A U38G,0
10,A11U C18U G29U C31G,0.03
11,A11U A24C A25G,0.05
12,A11G U20G G33U U43G,0.1
13,A11U A24C C31U,0.01
14,A12C A39U C45U,0.03
15,A12C C18A G36U,0.02
16,A12C C23U G27U,0.01
17,A12C C13U C23A G29A A41G,0.01
18,A11U C42G C45A,0
19,A12C A26U U28G A39U C46G,0
20,A11U C13U G19A A26G,0.03
21,A12C C18A A26G,0.01
22,A11G G36A A39C,0.02
23,A12C C18U G21C C23U,0.04
24,A11U G21A C45G,0.21

row,Variant,self-cleavage
1,A11U G21U G30C,0.08
2,A11U U20G C37U,0.02
3,A11U G21C U28C U34G C37A,0.01
4,A11U A12C U20G G27U,0.02
5,A11U G36A C45A C46A,0.06
6,A11U G22U G36A,0.04
7,A11G G35C C45U,0
8,A12C C18U U34G,0
9,A11G G36U C42A,0.04
10,A11U A12C U34C G44U,0.04
11,A12C A16G A26C,0.01
12,A11G U20A U38G,0.03
13,A11U G29C U38C G40U C42U,0
14,A11G G35U A39U C45A,0
15,A12C C15U C18A U28A G44U,0.01
16,A12C A16U G22A A26G A41C G44U C45A,0
17,A11U C23A A24U A39G,0.02
18,A12C C23U U32C U43G,0
19,A11U A14G C23A,0.09
20,A11U A12U C31U,0.1
21,A11U G17A C23A,0.03
22,A11U A12U A16C,0.02
23,A11U C23G G29C U38C G44C,0.01
